# The list shows a part of the results.
# B1: DBA (Dolichos biflorus) (protein)
# chain: ANIQSFSFKNFNSPSFILQGDATVSSGKLQLTKVKENGFPLRFPSGRAFYSSPIQIYDKFTGAVASWATSFTVKISAPSKASFADGIAFALVPVGSEPRRNGGYLGVFDSDVYNNSAQTVAVEFDTLSNSGWDPSMKHIGIDVNSIKSIATVSWDLANGENAEILITYNAATSLLVVSLVHPSRRTSYILSERVDITNELPEYVGVGFSATTGLSEGYIETHDVLSWSFASRLPDDSTAEPLDLARYLVRNVL
# Assays:
# Experiment in all cases: glycan array binding signal (z-score within array); higher = stronger binding
# Details in all cases: glycan notation: IUPAC condensed, linker removed
# [1] = biological target: Gal(b1-4)GlcNAc(b1-3)GalNAc
# Method in brief: (§1)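 Arrays were curated from the Consortium for Functional Glycomics database, 3228 in total, and kept only where the protein sequence was available. Binding is expressed as a within-array Z-score. This score was averaged across arrays of the same protein sequence at different concentrations or buffers and across linkers, and negative values can be read as non-binding.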
# [2] = biological target: Gal(b1-4)GlcNAc(b1-3)[Fuc(a1-3)GlcNAc(b1-6)]Gal(b1-4)Glc
# Method in brief: as §1
# [3] = biological target: Gal(b1-4)GlcNAc(b1-3)[Gal(b1-4)GlcNAc(b1-6)]Gal(b1-4)GlcNAc
# Method in brief: as §1
# [4] = biological target: Gal(b1-4)GlcNAc(b1-3)[Gal(b1-4)GlcNAc(b1-6)]GalNAc
# Method in brief: as §1
# [5] = biological target: Gal(b1-4)GlcNAc(b1-3)[GlcNAc(b1-6)]Gal(b1-4)GlcNAc
# Method in brief: as §1
# [6] = biological target: Gal(b1-4)GlcNAc(b1-6)Gal(b1-4)GlcNAc
# Method in brief: as §1
# [7] = biological target: Gal(b1-4)GlcNAc(b1-6)Gal(b1-4)GlcNAc(b1-6)GalNAc
# Method in brief: as §1
# [8] = biological target: Gal(b1-4)GlcNAc(b1-6)GalNAc
# Method in brief: as §1
# [9] = biological target: Gal(b1-4)GlcNAc(b1-6)[Gal(b1-3)]GalNAc
# Method in brief: as §1
# [10] = biological target: Gal(b1-4)GlcNAc(b1-6)[Gal(b1-4)GlcNAc(b1-3)]GalNAc
# Method in brief: as §1
# Gal(b1-4)GlcNAc6P = biological target: Gal(b1-4)GlcNAc6P
# Method in brief: as §1
# Gal(b1-6)Gal = biological target: Gal(b1-6)Gal
# Method in brief: as §1
# Gal3S(b1-3)GalNAc = biological target: Gal3S(b1-3)GalNAc
# Method in brief: as §1
# Gal3S(b1-3)GlcNAc = biological target: Gal3S(b1-3)GlcNAc
# Method in brief: as §1
# [11] = biological target: Gal3S(b1-3)[Fuc(a1-4)]GlcNAc
# Method in brief: as §1
# Gal3S(b1-4)Glc = biological target: Gal3S(b1-4)Glc
# Method in brief: as §1
# Gal3S(b1-4)Glc6S = biological target: Gal3S(b1-4)Glc6S
# Method in brief: as §1
# Gal3S(b1-4)GlcNAc = biological target: Gal3S(b1-4)GlcNAc
# Method in brief: as §1
# Gal3S(b1-4)GlcNAc6S = biological target: Gal3S(b1-4)GlcNAc6S
# Method in brief: as §1
# [12] = biological target: Gal3S(b1-4)[Fuc(a1-3)]Glc6S
# Method in brief: as §1
# [13] = biological target: Gal3S(b1-4)[Fuc(a1-3)]GlcNAc
# Method in brief: as §1
# [14] = biological target: Gal3S(b1-4)[Fuc(a1-3)]GlcNAc6S
# Method in brief: as §1
# Gal3S4S(b1-4)GlcNAc = biological target: Gal3S4S(b1-4)GlcNAc
# Method in brief: as §1
binder,measurement,setting,value
B1,glycan array binding signal (z-score),[1],-0.144
same,glycan array binding signal (z-score),[2],-0.11
same,glycan array binding signal (z-score),[3],-0.108
same,glycan array binding signal (z-score),[4],-0.168
same,glycan array binding signal (z-score),[5],-0.133
same,glycan array binding signal (z-score),[6],-0.122
same,glycan array binding signal (z-score),[7],-0.17
same,glycan array binding signal (z-score),[8],-0.083
same,glycan array binding signal (z-score),[9],-0.121
same,glycan array binding signal (z-score),[10],-0.113
same,glycan array binding signal (z-score),Gal(b1-4)GlcNAc6P,-0.091
same,glycan array binding signal (z-score),Gal(b1-6)Gal,-0.041
same,glycan array binding signal (z-score),Gal3S(b1-3)GalNAc,-0.153
same,glycan array binding signal (z-score),Gal3S(b1-3)GlcNAc,-0.136
same,glycan array binding signal (z-score),[11],-0.095
same,glycan array binding signal (z-score),Gal3S(b1-4)Glc,-0.125
same,glycan array binding signal (z-score),Gal3S(b1-4)Glc6S,-0.123
same,glycan array binding signal (z-score),Gal3S(b1-4)GlcNAc,-0.127
same,glycan array binding signal (z-score),Gal3S(b1-4)GlcNAc6S,-0.187
same,glycan array binding signal (z-score),[12],0.118
same,glycan array binding signal (z-score),[13],-0.12
same,glycan array binding signal (z-score),[14],-0.121
same,glycan array binding signal (z-score),Gal3S4S(b1-4)GlcNAc,-0.124
